The supplement of paper PMC4604168 (melanoma cell lines)
Some of the results follow. Most values come without repeats; read them as rough.

system: A375; assay: cell count relative to DMSO control; melanoma cells; higher = more viable cells; details: library dose: standard library concentration; 72 h
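Further: cells treated in 1,536-well plates, then fixed and DAPI-stained, with nuclei counted from automated high-throughput microscope images.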

Question: Which cell count does the source give for `COc1ccc(C2=N[C@@H](c3ccc(Cl)cc3)[C@@H](c3ccc(Cl)cc3)N2C(=O)N2CCNC(=O)C2)c(OC(C)C)c1` [Nutlin-3] + C[C@]1(c2nc3c(C(N)=O)cccc3[nH]2)CCCN1 [Veliparib] (first compound 0.5 µM, partner dose 7 µM) here?
Answer: The cell count was 77.3%.

Question: With `CC(C)C[C@H](NC(=O)[C@H](Cc1ccccc1)NC(=O)c1cnccn1)B(O)O` [Bortezomib] + COc1cc2ncnc(Nc3ccc(Oc4ccccc4)cc3)c2cc1OC [SrcI1] (first compound 0.005 µM, partner dose 10 µM) as the molecule, how does the cell count read?
Answer: The cell count was 113%.

Question: For `Cn1c(=O)n(-c2ccc(C(C)(C)C#N)cc2)c2c3cc(-c4cnc5ccccc5c4)ccc3ncc21` + Cc1cc(N2CCOCC2)cc2[nH]c(-c3c(NC[C@@H](O)c4cccc(Cl)c4)cc[nH]c3=O)nc12 [BMS536924] (first compound 0.02 µM, partner dose 1 µM), which cell count is on record?
Answer: The cell count was 113%.

Question: With `Cn1c(=O)n(-c2ccc(C(C)(C)C#N)cc2)c2c3cc(-c4cnc5ccccc5c4)ccc3ncc21` + CCc1ccc(CCOc2ccc(CC3SC(=O)NC3=O)cc2)nc1 [pioglitazone] (first compound 0.02 µM, partner dose 10 µM) as the molecule, how does the cell count read?
Answer: The cell count was 88.1%.

Question: For `Cc1cc(Nc2cc(N3CCN(C)CC3)nc(/C=C/c3ccccc3)n2)n[nH]1` + COc1ccc2c(c1)CCC1C2CCC2(C)C(NCCCCCCN3C(=O)C=CC3=O)CCC12 [U73122] (first compound 0.2 µM, partner dose 2 µM), which cell count is on record?
Answer: Its cell count is 64.6%.

Question: How did the cell count turn out when `COc1ccc(C2=N[C@@H](c3ccc(Cl)cc3)[C@@H](c3ccc(Cl)cc3)N2C(=O)N2CCNC(=O)C2)c(OC(C)C)c1` [Nutlin-3] + O=C(O)C(=O)Nc1sc2c(c1C(=O)O)CCNC2 [TCS401] (first compound 0.5 µM, partner dose 8.33333 µM) was run?
Answer: The cell count was 132%.

Question: Which cell count does the source give for `Cc1cn(-c2cc(NC(=O)c3ccc(C)c(Nc4nccc(-c5cccnc5)n4)c3)cc(C(F)(F)F)c2)cn1` [nilotinib] + COc1cc(N2CCC(N3CCN(C)CC3)CC2)ccc1Nc1ncc(Cl)c(Nc2ccccc2S(=O)(=O)C(C)C)n1 [NVP-TAE684] (first compound 1 µM, partner dose 0.4 µM) here?
Answer: Its cell count is 109%.

Question: How did the cell count turn out when `Cc1cc(Nc2cc(N3CCN(C)CC3)nc(/C=C/c3ccccc3)n2)n[nH]1` + Oc1cc(-c2nc(-c3ccccc3)[nH]c2-c2ccncc2)ccc1Cl [L779450] (first compound 0.2 µM, partner dose 1 µM) was run?
Answer: Its cell count is 80.7%.

Question: For `Cn1c(=O)n(-c2ccc(C(C)(C)C#N)cc2)c2c3cc(-c4cnc5ccccc5c4)ccc3ncc21` + Cc1cc([N+](=O)[O-])ccc1NS(=O)(=O)c1cc(Cl)ccc1Cl [FH535] (first compound 0.02 µM, partner dose 5 µM), which cell count is on record?
Answer: The cell count was 70.8%.

Question: `Cn1c(=O)n(-c2ccc(C(C)(C)C#N)cc2)c2c3cc(-c4cnc5ccccc5c4)ccc3ncc21` + O=c1cc(-c2cccc3c2Sc2ccccc2S3)oc(N2CCOCC2)c1 [KU55933] (first compound 0.02 µM, partner dose 5 µM) was tested. Which cell count did it give?
Answer: The cell count was 86.4%.

Question: How did the cell count turn out when `COc1ccc(C2=N[C@@H](c3ccc(Cl)cc3)[C@@H](c3ccc(Cl)cc3)N2C(=O)N2CCNC(=O)C2)c(OC(C)C)c1` [Nutlin-3] + COc1ccc(COc2ccc(Cc3cnc(N)nc3N)cc2OC)cc1 [GW2580] (first compound 0.5 µM, partner dose 5 µM) was run?
Answer: Its cell count is 75.6%.

Question: For `COc1ccc(C2=N[C@@H](c3ccc(Cl)cc3)[C@@H](c3ccc(Cl)cc3)N2C(=O)N2CCNC(=O)C2)c(OC(C)C)c1` [Nutlin-3] + O=C(O)[C@@H]1[O][Sb](=[O])([O][Sb]2(=[O])[O][C@H]([C@H](O)CO)[C@H](O)[C@H](C(=O)O)[O]2)[O][C@H]([C@H](O)CO)[C@@H]1O [stibogluconate] (first compound 0.5 µM, partner dose 10 µM), which cell count is on record?
Answer: The cell count was 74.3%.

Question: For `CC(C)C[C@H](NC(=O)[C@H](Cc1ccccc1)NC(=O)c1cnccn1)B(O)O` [Bortezomib] + COc1ccc(-c2ccc3c(N4CCOCC4)nc(N4C[C@@H](C)O[C@@H](C)C4)nc3n2)cc1CO [KU0063794] (first compound 0.005 µM, partner dose 0.1 µM), which cell count is on record?
Answer: The cell count was 117%.

Question: How did the cell count turn out when `Cn1c(=O)n(-c2ccc(C(C)(C)C#N)cc2)c2c3cc(-c4cnc5ccccc5c4)ccc3ncc21` + O=C1NC(=O)/C(=C/c2ccc(-c3ccc(F)cc3O)o2)S1 [AS252424] (first compound 0.02 µM, partner dose 5 µM) was run?
Answer: The cell count was 103%.

Question: For `Cn1c(=O)n(-c2ccc(C(C)(C)C#N)cc2)c2c3cc(-c4cnc5ccccc5c4)ccc3ncc21` + CN(C)S(=O)(=O)c1ccc2c(c1)/C(=C/c1cc3c([nH]1)CCCC3)C(=O)N2 [SU6656] (first compound 0.02 µM, partner dose 2 µM), which cell count is on record?
Answer: The cell count was 138%.

Question: `COc1ccc(C2=N[C@@H](c3ccc(Cl)cc3)[C@@H](c3ccc(Cl)cc3)N2C(=O)N2CCNC(=O)C2)c(OC(C)C)c1` [Nutlin-3] + Cn1cc(/C=C2\C(=O)Nc3cccnc32)c2ccccc21 [GW441756] (first compound 0.5 µM, partner dose 2 µM) was tested. Which cell count did it give?
Answer: Its cell count is 93.9%.

Question: With `Cc1cn(-c2cc(NC(=O)c3ccc(C)c(Nc4nccc(-c5cccnc5)n4)c3)cc(C(F)(F)F)c2)cn1` [nilotinib] + O=C(O)c1ccc(-c2c[nH]c3ncc(-c4ccccc4)cc23)cc1C1CCCC1 [GSK650394] (first compound 1 µM, partner dose 0.8 µM) as the molecule, how does the cell count read?
Answer: The cell count was 117%.

Question: With `Cc1cn(-c2cc(NC(=O)c3ccc(C)c(Nc4nccc(-c5cccnc5)n4)c3)cc(C(F)(F)F)c2)cn1` [nilotinib] + NC(=O)c1ccc(N(C(N)=O)c2c(F)cccc2F)nc1-c1ccc(F)cc1F [VX702] (first compound 1 µM, partner dose 2 µM) as the molecule, how does the cell count read?
Answer: The cell count was 142%.
